Laboratory results taken from patent US11000038B2, “Pyridone compounds and agricultural and horticultural fungicides containing the same as active ingredients” (priority 2017, dated 2021).

Legend:
[1] = test system: cabbage Alternaria sooty spot fungi (Alternaia brassicicola); experiment: Test Example C: cabbage Alternaria sooty spot, spray treatment of cabbage plants; type: in vivo; settings: cabbage Alternaria sooty spot, spray treatment of cabbage plants
Source text: [Test Example C] Cabbage Alternaria Sooty Spot
Test plants (cabbage variety: Shikidori) were cultivated until the cotyledons extended after the sowing of seeds.
<Control Value> Control value=100{1−(n/3)}

[2] = test system: wheat brown rust fungi (Puccinia recondita); experiment: Test Example E: wheat brown rust, spray treatment of wheat plants; type: in vivo; settings: wheat brown rust, spray treatment of wheat plants
[3] = test system: gray mold fungi (Botrytis cinerea); experiment: Test Example B: tomato gray mold, spray treatment of tomato plants; settings: tomato gray mold, spray treatment of tomato plants
[4] = test system: grape downy mildew fungus (Plasmopara viticola); experiment: Test Example G: grape downy mildew, spray treatment of grape plants; settings: grape downy mildew, 250 ppm spray (2.5 ml/pot), 7 to 10 days after inoculation
[5] = test system: barley powdery mildew fungi (Blumeria graminis f. sp. hordei); experiment: Test Example D: barley powdery mildew, spray treatment of barley plants; settings: barley powdery mildew, spray treatment of barley plants

SMILES | Test C control value [1] | Test E control value [2] | Test B control value [3] | Test G control value [4] | Test D control value [5]
Cc1cccc(Cl)c1-n1cc(Cl)c(=O)c(Br)c1-c1c(F)cc(F)cc1F [Compound 318] | H (H shows the control value of more than 50%) | L (L shows the control value of 50% or less) | L (L shows the control value of 50% or less) | L (L shows the control value of 50% or less) | L (L shows the control value of 50% or less)
Cc1cccc(Cl)c1-n1cc(Cl)c(=O)c(Cl)c1-c1c(F)cc(F)cc1F [Compound 319] | L (L shows the control value of 50% or less) | H (H shows the control value of more than 50%) | L (L shows the control value of 50% or less) | L (L shows the control value of 50% or less) | L (L shows the control value of 50% or less)
Cc1c(-n2cc(Br)c(=O)c(Cl)c2-c2c(F)cc(F)cc2F)cccc1[N+](=O)[O-] [Compound 320] | H (H shows the control value of more than 50%) | H (H shows the control value of more than 50%) | H (H shows the control value of more than 50%) | L (L shows the control value of 50% or less) | L (L shows the control value of 50% or less)
Cc1c(-n2cc(Br)c(=O)c(Br)c2-c2c(F)cc(F)cc2F)cccc1[N+](=O)[O-] [Compound 321] | H (H shows the control value of more than 50%) | H (H shows the control value of more than 50%) | L (L shows the control value of 50% or less) | L (L shows the control value of 50% or less) | L (L shows the control value of 50% or less)
Cc1ccc([N+](=O)[O-])cc1-n1cc(Br)c(=O)c(Cl)c1-c1c(F)cc(F)cc1F [Compound 324] | H (H shows the control value of more than 50%) | H (H shows the control value of more than 50%) | H (H shows the control value of more than 50%) | H (H shows the control value of more than 50%) | L (L shows the control value of 50% or less)
Cc1ccc([N+](=O)[O-])cc1-n1cc(Br)c(=O)c(Br)c1-c1c(F)cc(F)cc1F [Compound 325] | H (H shows the control value of more than 50%) | H (H shows the control value of more than 50%) | H (H shows the control value of more than 50%) | H (H shows the control value of more than 50%) | L (L shows the control value of 50% or less)
CCc1c(-c2c(F)cc(F)cc2F)n(-c2ccccc2C)cc(C(C)=O)c1=O [Compound 327] | H (H shows the control value of more than 50%) | H (H shows the control value of more than 50%) | H (H shows the control value of more than 50%) | H (H shows the control value of more than 50%) | L (L shows the control value of 50% or less)
CCc1cn(-c2ccccc2C)c(-c2c(F)cc(F)cc2F)c(C)c1=O [Compound 328] | H (H shows the control value of more than 50%) | H (H shows the control value of more than 50%) | H (H shows the control value of more than 50%) | L (L shows the control value of 50% or less) | H (H shows the control value of more than 50%)
Cc1cc(Cl)ccc1-n1cc(Br)c(=O)c(Cl)c1-c1c(F)cc(F)cc1F [Compound 329] | H (H shows the control value of more than 50%) | H (H shows the control value of more than 50%) | H (H shows the control value of more than 50%) | L (L shows the control value of 50% or less) | L (L shows the control value of 50% or less)
Cc1cc(Cl)ccc1-n1cc(Br)c(=O)c(Br)c1-c1c(F)cc(F)cc1F [Compound 330] | H (H shows the control value of more than 50%) | H (H shows the control value of more than 50%) | H (H shows the control value of more than 50%) | L (L shows the control value of 50% or less) | L (L shows the control value of 50% or less)
Cc1cc(Cl)ccc1-n1cc(Cl)c(=O)c(Br)c1-c1c(F)cc(F)cc1F [Compound 331] | H (H shows the control value of more than 50%) | H (H shows the control value of more than 50%) | H (H shows the control value of more than 50%) | L (L shows the control value of 50% or less) | L (L shows the control value of 50% or less)
Cc1cc(Cl)ccc1-n1cc(Cl)c(=O)c(Cl)c1-c1c(F)cc(F)cc1F [Compound 332] | H (H shows the control value of more than 50%) | H (H shows the control value of more than 50%) | H (H shows the control value of more than 50%) | L (L shows the control value of 50% or less) | L (L shows the control value of 50% or less)
Cc1c(N)cccc1-n1cc(Br)c(=O)c(Cl)c1-c1c(F)cc(F)cc1F [Compound 333] | H (H shows the control value of more than 50%) | H (H shows the control value of more than 50%) | H (H shows the control value of more than 50%) | L (L shows the control value of 50% or less) | L (L shows the control value of 50% or less)
Cc1ccc(C#N)cc1-n1cc(Br)c(=O)c(Cl)c1-c1c(F)cc(F)cc1F [Compound 336] | L (L shows the control value of 50% or less) | H (H shows the control value of more than 50%) | H (H shows the control value of more than 50%) | L (L shows the control value of 50% or less) | L (L shows the control value of 50% or less)
Cc1ccc(C#N)cc1-n1cc(Br)c(=O)c(Br)c1-c1c(F)cc(F)cc1F [Compound 337] | L (L shows the control value of 50% or less) | H (H shows the control value of more than 50%) | H (H shows the control value of more than 50%) | L (L shows the control value of 50% or less) | L (L shows the control value of 50% or less)
C=Cc1cn(-c2ccccc2C)c(-c2c(F)cc(F)cc2F)c(C)c1=O [Compound 340] | H (H shows the control value of more than 50%) | H (H shows the control value of more than 50%) | H (H shows the control value of more than 50%) | L (L shows the control value of 50% or less) | H (H shows the control value of more than 50%)
Cc1ccccc1-n1cc(Br)c(=O)c(CC(F)(F)F)c1-c1c(F)cc(F)cc1F [Compound 341] | L (L shows the control value of 50% or less) | L (L shows the control value of 50% or less) | L (L shows the control value of 50% or less) | L (L shows the control value of 50% or less) | L (L shows the control value of 50% or less)
Cc1cccc(C)c1-n1cc(Br)c(=O)c(Cl)c1-c1ccc(F)cc1 [Compound 342] | H (H shows the control value of more than 50%) | L (L shows the control value of 50% or less) | L (L shows the control value of 50% or less) | L (L shows the control value of 50% or less) | L (L shows the control value of 50% or less)
Cc1cccc(C)c1-n1cc(Cl)c(=O)c(Br)c1-c1ccc(F)cc1 [Compound 344] | H (H shows the control value of more than 50%) | L (L shows the control value of 50% or less) | L (L shows the control value of 50% or less) | L (L shows the control value of 50% or less) | L (L shows the control value of 50% or less)
Cc1cccc(C)c1-n1cc(Cl)c(=O)c(Cl)c1-c1ccc(F)cc1 [Compound 345] | L (L shows the control value of 50% or less) | L (L shows the control value of 50% or less) | L (L shows the control value of 50% or less) | L (L shows the control value of 50% or less) | L (L shows the control value of 50% or less)
Cc1c(Br)cccc1-n1cc(Br)c(=O)c(Cl)c1-c1c(F)cc(F)cc1F [Compound 346] | H (H shows the control value of more than 50%) | H (H shows the control value of more than 50%) | H (H shows the control value of more than 50%) | L (L shows the control value of 50% or less) | H (H shows the control value of more than 50%)
